Measured values taken from PMC9911399, “Two distinct binding modes provide the RNA-binding protein RbFox with extraordinary sequence specificity”.
Numbering of substitutions follows the chain as printed; changes in the protein carry UniProt numbers. Some of the results follow.

T1: RBFOX1 RRM (Homo sapiens, UniProt Q9NWB1 109-208)
T1 sequence: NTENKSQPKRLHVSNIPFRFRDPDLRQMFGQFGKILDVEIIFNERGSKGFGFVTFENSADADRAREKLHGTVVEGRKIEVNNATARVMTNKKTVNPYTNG

B1: UGCAUCC (DNA:RNA)
RNA: GGGAGACCGGAAUUCAGAUUGUCCUGCAUCCUUAAAUCCCGUCGUAGCCACCA
DNA 1: CAATCTGAATTCCGGTCTCCC
DNA 2: TGGTGGCTACGACGGGATT
B2: CAUGAUU (DNA:RNA)
RNA: GGGAGACCGGAAUUCAGAUUGUCCCAUGAUUUUAAAUCCCGUCGUAGCCACCA
DNA 1: CAATCTGAATTCCGGTCTCCC
DNA 2: TGGTGGCTACGACGGGATT
B3: GCAAGGG (DNA:RNA)
RNA: B1 RNA with U25G, G26C, C27A, U29G, C30G, C31G
DNA 1: CAATCTGAATTCCGGTCTCCC
DNA 2: TGGTGGCTACGACGGGATT
B4: UAGAUGC (DNA:RNA)
RNA: B1 RNA with G26A, C27G, C30G
DNA 1: CAATCTGAATTCCGGTCTCCC
DNA 2: TGGTGGCTACGACGGGATT
B5: CACUUAA (DNA:RNA)
RNA: B2 RNA with U27C, G28U, A29U, U30A, U31A
DNA 1: CAATCTGAATTCCGGTCTCCC
DNA 2: TGGTGGCTACGACGGGATT
B6: UACGAUC (DNA:RNA)
RNA: B2 RNA with C25U, U27C, U31C
DNA 1: CAATCTGAATTCCGGTCTCCC
DNA 2: TGGTGGCTACGACGGGATT
B7: CGUAGAC (DNA:RNA)
RNA: B1 RNA with U25C, C27U, U29G, C30A
DNA 1: CAATCTGAATTCCGGTCTCCC
DNA 2: TGGTGGCTACGACGGGATT
B8: CGUUCGA (DNA:RNA)
RNA: B2 RNA with A26G, G28U, A29C, U30G, U31A
DNA 1: CAATCTGAATTCCGGTCTCCC
DNA 2: TGGTGGCTACGACGGGATT
B9: CAGGGAC (DNA:RNA)
RNA: B2 RNA with U27G, A29G, U30A, U31C
DNA 1: CAATCTGAATTCCGGTCTCCC
DNA 2: TGGTGGCTACGACGGGATT
B10: CUGUGUU (DNA:RNA)
RNA: B2 RNA with A26U, U27G, G28U, A29G
DNA 1: CAATCTGAATTCCGGTCTCCC
DNA 2: TGGTGGCTACGACGGGATT
B11: GGUGCUC (DNA:RNA)
RNA: B2 RNA with C25G, A26G, A29C, U31C
DNA 1: CAATCTGAATTCCGGTCTCCC
DNA 2: TGGTGGCTACGACGGGATT
B12: CUUAUGG (DNA:RNA)
RNA: B2 RNA with A26U, G28A, A29U, U30G, U31G
DNA 1: CAATCTGAATTCCGGTCTCCC
DNA 2: TGGTGGCTACGACGGGATT
B13: CCUGAGC (DNA:RNA)
RNA: B2 RNA with A26C, U30G, U31C
DNA 1: CAATCTGAATTCCGGTCTCCC
DNA 2: TGGTGGCTACGACGGGATT
B14: GUACAGA (DNA:RNA)
RNA: B2 RNA with C25G, A26U, U27A, G28C, U30G, U31A
DNA 1: CAATCTGAATTCCGGTCTCCC
DNA 2: TGGTGGCTACGACGGGATT
B15: CUUUACG (DNA:RNA)
RNA: B2 RNA with A26U, G28U, U30C, U31G
DNA 1: CAATCTGAATTCCGGTCTCCC
DNA 2: TGGTGGCTACGACGGGATT
B16: CUGUUGA (DNA:RNA)
RNA: B2 RNA with A26U, U27G, G28U, A29U, U30G, U31A
DNA 1: CAATCTGAATTCCGGTCTCCC
DNA 2: TGGTGGCTACGACGGGATT
B17: UGUGAAG (DNA:RNA)
RNA: B2 RNA with C25U, A26G, U30A, U31G
DNA 1: CAATCTGAATTCCGGTCTCCC
DNA 2: TGGTGGCTACGACGGGATT
B18: CGCCAAC (DNA:RNA)
RNA: B1 RNA with U25C, A28C, U29A, C30A
DNA 1: CAATCTGAATTCCGGTCTCCC
DNA 2: TGGTGGCTACGACGGGATT
B19: CGAUGUU (DNA:RNA)
RNA: B2 RNA with A26G, U27A, G28U, A29G
DNA 1: CAATCTGAATTCCGGTCTCCC
DNA 2: TGGTGGCTACGACGGGATT
B20: GACAGUC (DNA:RNA)
RNA: B1 RNA with U25G, G26A, U29G, C30U
DNA 1: CAATCTGAATTCCGGTCTCCC
DNA 2: TGGTGGCTACGACGGGATT
B21: UCGCUAA (DNA:RNA)
RNA: B1 RNA with G26C, C27G, A28C, C30A, C31A
DNA 1: CAATCTGAATTCCGGTCTCCC
DNA 2: TGGTGGCTACGACGGGATT
B22: UAGGGCC (DNA:RNA)
RNA: B1 RNA with G26A, C27G, A28G, U29G
DNA 1: CAATCTGAATTCCGGTCTCCC
DNA 2: TGGTGGCTACGACGGGATT
B23: UCCUCAC (DNA:RNA)
RNA: B1 RNA with G26C, A28U, U29C, C30A
DNA 1: CAATCTGAATTCCGGTCTCCC
DNA 2: TGGTGGCTACGACGGGATT
B24: ACAAUAU (DNA:RNA)
RNA: B1 RNA with U25A, G26C, C27A, C30A, C31U
DNA 1: CAATCTGAATTCCGGTCTCCC
DNA 2: TGGTGGCTACGACGGGATT
B25: CGCGGCG (DNA:RNA)
RNA: B1 RNA with U25C, A28G, U29G, C31G
DNA 1: CAATCTGAATTCCGGTCTCCC
DNA 2: TGGTGGCTACGACGGGATT
B26: CGCUAGU (DNA:RNA)
RNA: B2 RNA with A26G, U27C, G28U, U30G
DNA 1: CAATCTGAATTCCGGTCTCCC
DNA 2: TGGTGGCTACGACGGGATT
B27: AGGAAGU (DNA:RNA)
RNA: B2 RNA with C25A, A26G, U27G, G28A, U30G
DNA 1: CAATCTGAATTCCGGTCTCCC
DNA 2: TGGTGGCTACGACGGGATT
B28: CAGGAUA (DNA:RNA)
RNA: B2 RNA with U27G, U31A
DNA 1: CAATCTGAATTCCGGTCTCCC
DNA 2: TGGTGGCTACGACGGGATT
B29: AGUAACA (DNA:RNA)
RNA: B1 RNA with U25A, C27U, U29A, C31A
DNA 1: CAATCTGAATTCCGGTCTCCC
DNA 2: TGGTGGCTACGACGGGATT
B30: GUCGCAA (DNA:RNA)
RNA: B2 RNA with C25G, A26U, U27C, A29C, U30A, U31A
DNA 1: CAATCTGAATTCCGGTCTCCC
DNA 2: TGGTGGCTACGACGGGATT
B31: AUAGGGC (DNA:RNA)
RNA: B2 RNA with C25A, A26U, U27A, A29G, U30G, U31C
DNA 1: CAATCTGAATTCCGGTCTCCC
DNA 2: TGGTGGCTACGACGGGATT

target: T1, RBFOX1 RRM; assay: EMSA; HiTS-Eq, 1 nM pool, 10 min; buffer printed only for the single-RNA assays: 10 mM Tris pH 7.5, 150 mM NaCl, 3.4 mM EDTA, 0.001% NP-40, 30 C; details: tags: His6 N-terminal (pET28a); label: 5' 32P
Procedure, shortened: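 Purified RbFox RRM (wild type or mutant) was equilibrated for 10 min in 50 µL with 1 nM of a 5′-radiolabelled pool of RNA with 7 randomized nucleotides, its flanks annealed to DNA oligonucleotides, across increasing protein concentrations. Free RNA was separated by 8% native PAGE, excised, reverse-transcribed, PCR-barcoded and sequenced on an Illumina HiSeq 2500. Relative association constants came from read-count changes of each variant against the control reaction, normalised to the cognate motif.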

Binder | binding signal
B1 | 0.0337 KA relative to UGCAUGU
B2 | 0.00659 KA relative to UGCAUGU
B3 | 0.00604 KA relative to UGCAUGU
B4 | 0.0124 KA relative to UGCAUGU
B5 | 0.00318 KA relative to UGCAUGU
B6 | 0.00774 KA relative to UGCAUGU
B7 | 0.00754 KA relative to UGCAUGU
B8 | 0.0138 KA relative to UGCAUGU
B9 | 0.0073 KA relative to UGCAUGU
B10 | 0.0207 KA relative to UGCAUGU
B11 | 0.0279 KA relative to UGCAUGU
B12 | 0.00785 KA relative to UGCAUGU
B13 | 0.00946 KA relative to UGCAUGU
B14 | 0.0123 KA relative to UGCAUGU
B15 | 0.00682 KA relative to UGCAUGU
B16 | 0.0269 KA relative to UGCAUGU

Binder | binding signal
B17 | 0.0226 KA relative to UGCAUGU
B18 | 0.00635 KA relative to UGCAUGU
B19 | 0.0118 KA relative to UGCAUGU
B20 | 0.012 KA relative to UGCAUGU
B21 | 0.00696 KA relative to UGCAUGU
B22 | 0.00834 KA relative to UGCAUGU
B23 | 0.00186 KA relative to UGCAUGU
B24 | 0.000362 KA relative to UGCAUGU
B25 | 0.02 KA relative to UGCAUGU
B26 | 0.0168 KA relative to UGCAUGU
B27 | 0.0147 KA relative to UGCAUGU
B28 | 0.0109 KA relative to UGCAUGU
B29 | 0.00267 KA relative to UGCAUGU
B30 | 0.0102 KA relative to UGCAUGU
B31 | 0.00593 KA relative to UGCAUGU
